Test results from publication PMC6919601, “Identification of Plasmodium dipeptidyl aminopeptidase allosteric inhibitors by high throughput screening” (PLoS ONE, 2019).
Values joined by “and” are separate entries in the source; they are usually repeats but may differ in a detail not shown here. Identical values can stand only once. Hit rate of the full screen: of about 110,000 compounds, about 230 (0.21%) showed an effect of 50% or more. Some of the results follow.

The compounds below were run against DPAP1 (Plasmodium falciparum, UniProt Q8IIJ9) (assay: primary screen, percent inhibition; read by cleavage of a fluorogenic dipeptide substrate; higher = more effect of the substance).
Sequence of DPAP1 (Q8IIJ9 whole entry, looked up): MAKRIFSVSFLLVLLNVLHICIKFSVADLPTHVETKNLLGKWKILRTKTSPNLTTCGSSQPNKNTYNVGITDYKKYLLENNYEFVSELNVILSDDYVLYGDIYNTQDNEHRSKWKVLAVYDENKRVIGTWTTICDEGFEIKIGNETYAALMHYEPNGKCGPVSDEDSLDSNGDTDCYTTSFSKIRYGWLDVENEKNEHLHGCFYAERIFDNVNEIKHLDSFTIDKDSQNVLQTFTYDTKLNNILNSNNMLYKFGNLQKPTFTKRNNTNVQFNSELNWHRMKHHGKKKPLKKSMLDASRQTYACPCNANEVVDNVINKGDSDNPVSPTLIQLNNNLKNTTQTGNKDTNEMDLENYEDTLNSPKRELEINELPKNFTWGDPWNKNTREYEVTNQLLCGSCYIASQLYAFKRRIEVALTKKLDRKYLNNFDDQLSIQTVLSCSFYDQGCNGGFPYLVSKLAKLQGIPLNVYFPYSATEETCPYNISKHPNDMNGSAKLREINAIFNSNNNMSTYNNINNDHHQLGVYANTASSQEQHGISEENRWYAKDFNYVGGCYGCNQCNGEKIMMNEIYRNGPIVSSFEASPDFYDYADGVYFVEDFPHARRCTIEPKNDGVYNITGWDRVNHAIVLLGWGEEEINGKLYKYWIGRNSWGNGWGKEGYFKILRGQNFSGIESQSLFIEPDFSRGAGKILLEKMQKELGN
Set-up: species or system P. falciparum D10 trophozoite lysates; single well
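Also: 30 min substrate incubation versus DMSO and 10 µM JCP410 controls.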

SMILES	% Inhibition @ 10 uM
C=C(C)CSc1nc2c(c(=O)n(C)c(=O)n2C)n1CC(=C)C	-0.864%
Cc1nc2c(c(-c3ccccc3)c1C#N)C(=O)CC(C)(C)C2	2.86%
CCOC(=O)C1=C(c2ccccc2)N=c2s/c(=C\c3ccco3)c(=O)n2C1c1cccs1 (centres unmarked)	-3.98%
COc1ccc(-c2cc(C)no2)cc1S(=O)(=O)N1CCN(CCn2c(C)ccc2C)CC1	-3.79%
N=C1/C(=C/c2coc3ccccc3c2=O)C(=O)N=C2SC=C(c3ccc(F)cc3)N12	1.15%
COc1ccc(CC(=O)N2CCC3(CC2)N=C(c2ccc(C)cc2)C(=O)N3)cc1OC	-3.47%
Cc1ccc2nsnc2c1S(=O)(=O)NCCc1c(C)[nH]c2ccccc12	-0.671%
Cc1nnc(NC(=O)CSc2nc(-c3ccccc3C)ns2)s1	-0.959%
CC(=O)N1CCc2c(sc3c2c(=O)n(Cc2ccccc2)c(=O)n3Cc2ccccc2C)C1	-1.66%
CCc1ccc(CNCCc2ccccc2OC)cc1	9.1%
Cc1nc2nc(C)c(CCC(=O)NCCCc3ccccc3)c(C)n2n1	-0.465%
O=C(CCNS(=O)(=O)c1ccc2nc(O)ccc2c1)NCCc1ccc(Cl)cc1	-6.2%
COc1cc(C(=O)Nc2cc(C)cc(C)c2)ccc1OC(F)F	-5.81%
O=[N+]([O-])c1ccc(S(=O)(=O)Nc2ccccc2-c2ccccc2)cc1	-2.77%
CCOC(=O)c1c(C)n(C)c2ccc(OCC(O)Cn3nc(C)c(Br)c3C)cc12 (centres unmarked)	-3.13%
Cc1ccsc1C(=O)N1CCN(c2ccccn2)CC1	-10.2%
Fc1ccc2c(c1)C=Cc1ccccc1S2	-2.07%
CC(=O)n1cc(-c2ccncc2)c2ccccc21	-5.48%
CC(=O)OC1(C#CCN2CCOCC2)CCCCC1	3.01%
CCCNc1nc(-c2ccc(C)cc2)cs1	3.33%
CCCc1[nH]nc2c1C(c1ccc(Cl)cc1Cl)C(C#N)=C(N)O2 (centres unmarked)	4.08%
Cc1cc(NC(=O)CN2CCCCC2C)nc2c1c(=O)oc1ccccc12 (centres unmarked)	-4.76%
O=c1cc2nc(-c3ccco3)nc(SCc3ccccc3)n2[nH]1	-4.36%
CCOC(=O)c1cc2c(C)n(CC)c(C)c2ccc1=O	-0.267%
Cc1cc(C)c(C#N)c(SCCC(=O)Nc2ccc(F)cc2)n1	2.01%
COc1ccc2nc(NC(=O)CN(C)S(=O)(=O)c3cccs3)sc2c1	1.09%

SMILES	% Inhibition @ 10 uM
CCOc1cc(CN2CCN(c3cccc(Cl)c3)CC2)ccc1OC	4.57%
COC(=O)c1cc2oc(C)cc2n1Cc1ccc(F)cc1Cl	-6.07%
CCOc1nc(NC(=O)NS(=O)(=O)c2ccccc2C(=O)OC)nc(-c2ccccc2)n1	-2.5%
COc1ccc(NS(=O)(=O)c2cccc(S(=O)(=O)c3ccc(Cl)c(Cl)c3)c2)cc1	-3.78%
CCc1nn(CCCC(=O)NCCCN2C(C)CCCC2C)c(=O)c2cc3occc3n12 (centres unmarked)	-0.281%
O=S(=O)(c1ccc(Cl)cc1)N1CCc2ccccc2C1	1.35%
Cc1ccc(NC(=O)c2ccc(Cl)cc2)cc1C	-0.274%
CCN(CC)CC1OCc2ccccc2CO1	-5.33%
Cc1cccc(Cn2c(=O)sc3ccccc32)c1	1.74%
Oc1cc(Cc2ccccc2)cnc1CN1CCCCC1	2.38% and 2.94%
CCn1cc(CN(C)S(=O)(=O)c2ccc3ccccc3c2)cn1	-1.43%
CCOCCCNC1CCC(C)CC1 (centres unmarked)	-1.81%
COc1ccccc1/N=C/C=C(\O)c1ccc(OC)c(OC)c1	1.35%
CCC(NC(=O)c1cccc(Cl)c1)c1ccc(OC)c(OC)c1 (centres unmarked)	-5.14%
CCC(N)C(=O)c1c(C)cc(C)cc1C (centres unmarked)	-1.05%
O=[N+]([O-])c1ccc(-c2ncnn2-c2ccccc2)cc1	-1.96%
O=C(O)c1cc(-c2cc(Cl)ccc2O)nc2[nH]nc(-c3ccccc3)c12	13.2%
O=C1Cc2ccccc2Sc2ccc(O)cc21	-2.98%
CNc1sc(C(=O)c2ccc(OC)cc2)c(N)c1C#N	1.84%
c1ccc2sc(N3CCN(Cc4ccc5c(c4)OCO5)CC3)nc2c1	-2.94%
Cc1ccccc1-c1[nH]c2c(C#N)cnn2c1NC1CCCCC1	0.596%
CC1CCCC(NC(=O)CN2N=C(c3ccc(Cl)cc3)CCC2=O)C1C (centres unmarked)	-1.21%
O=C(NCCC1=CCCCC1)NC1CCCCC1	-3.26%
CN(C(=O)CCCOc1ccc(Cl)cc1Cl)C1CCCCC1	-0.351%
N#CCNC(=O)C(Cc1ccccc1F)NC(=O)OCc1ccccc1 (centres unmarked)	-3.48%
Cc1ccc2oc(=O)n(CCOc3ccc(Br)cc3)c2c1	-2.56%

SMILES	% Inhibition @ 10 uM
Cc1cc(C(=O)O)c(C)cc1OCc1ccccc1	-5.21%
O=C(NCC1CCCCC1)NC1CCCN(c2cnccn2)C1 (centres unmarked)	2.41%
CC1(C)O[C@H]2[C@@H](O1)[C@@H](C(=O)NCc1ccco1)O[C@@H]1OC(C)(C)O[C@@H]12	1.64%
Cc1cc(Cl)ccc1OCC(O)CN1CCC(C)CC1 (centres unmarked)	1.67%
CCSC(=S)NC1CCS(=O)(=O)C1 (centres unmarked)	-2.65%
CC1=CC2=NC(=O)/C(=C\c3ccc(OCc4ccc(F)cc4)cc3)C(=N)N2O1	-3.23%
Cc1ccc(OCCNC(=O)Cn2cnc3c(=O)n(C)c(=O)n(C)c32)cc1C	-9.26%
COc1cc(C(=O)N/C(=C/c2ccc(F)cc2)C(=O)NC(C)C(=O)O)cc(OC)c1OC (centres unmarked)	19.7%
N=c1c2c3c(sc2ncn1Cc1ccccc1)CCCCC3	2.44%
CC(Cc1ccccc1)[N+]1=NO/C(=N/C(=O)N(C)C)C1 (centres unmarked)	2.56%
COc1ccc(C(=O)OC2c3ccccc3C(=O)N2Cc2ccccc2Cl)cc1OC (centres unmarked)	-1.03%
Cc1cccc(N2CCN(C(=O)c3cccs3)CC2)c1C	3.01%
CC1CN=C(/C=C(\O)c2cccs2)C(=O)N1 (centres unmarked)	-5.08%
CC(C)NC(=O)C1CN(S(=O)(=O)c2ccccc2)CCN1S(=O)(=O)c1ccccc1 (centres unmarked)	-0.99%
O=C(NCCN1CCOCC1)c1nn2c(C(F)(F)F)cc(-c3ccccc3)nc2c1Br	-4.02%
Cc1ccc(-c2cnc3c(=O)[nH]c(=O)[nH]c3n2)cc1	1.88%
Oc1c2c(nc3cc(Cl)ccc13)CCCC2	-3.09%
Cc1cc2ccccc2n1CCNC(=O)COc1ccc(Cl)cc1Cl	-5.47%
O=C1CC(c2ccc(F)cc2)CC(=O)C1=CNCC1NCCc2ccccc21 (centres unmarked)	-1.4%
O=C(NCc1cccs1)C1CCN(c2nc3ccccc3o2)CC1	5.23%
O=C1C2C3c4ccccc4C(c4ccccc43)C2C(=O)N1c1ccccc1I (centres unmarked)	-0.744%
CC(=O)C1=C(O)C(=O)N(c2ccc(O)cc2)C1c1cccc(F)c1 (centres unmarked)	2.06%
CO/C=C(\Oc1ccccc1C)C(=O)Nc1ccc(Cl)cc1	2.73%
CC(NCc1c(C(=O)O)n(Cc2cccc(Cl)c2)c2ccccc12)c1ccccc1 (centres unmarked)	8.05%
COCc1nnc(NC(=O)/C=C/c2cc(OC)c(OC)c(OC)c2)s1	26.7%
Cc1cccc(S(=O)Cc2ccc(C(=O)NCc3ccccc3C)o2)c1 (centres unmarked)	6.15%

SMILES	% Inhibition @ 10 uM
COc1cc(CNc2ncc(-c3ccccc3)n2C)cc(OC)c1OC	0.627%
O=C(Nc1cccc(Cl)c1)c1ccc([N+](=O)[O-])cc1	3.1%
COc1cccc(CN2CCN(Cc3ccccc3C(F)(F)F)CC2)c1OC	-2.94%
CCOc1ccc(C(=O)NC2CCCCCCC2)cc1	-1.88%
CNS(=O)(=O)c1ccc(-c2ccc(C(N[C@H](CC(C)C)C(=O)NCC#N)C(F)(F)F)cc2)cc1 (some centres unmarked)	-4.72%
CN1CCC(N(C)Cc2ccccc2F)CC1	3.16%
O=C(CCc1nc(-c2ccccc2)no1)NC1CCCCC1	-3.12%
O=C(NCCCc1ccccc1)c1ccc(Br)o1	0.389%
O=C(NCc1ccco1)c1cc(-c2ccco2)nc2ccccc12	-4.68%
O=C(NCc1ccc(Cl)cc1)c1cc(-c2ccco2)[nH]n1	1.76%
O=C(O)CCCCCNC(=O)c1cccc(Br)c1	-5.41%
CC(=O)c1ccc(NC(=O)c2ccccc2C(=O)O)cc1	-5.46%
Cc1cccc(NS(=O)(=O)Cc2ccccc2)c1C	-0.582%
O=C(CS(=O)(=O)Cc1ccccc1)N1CCN(c2cccc(Cl)c2)CC1	3.92%
CN1CCN(C(=O)CN(c2ccc(F)cc2)S(=O)(=O)c2ccccc2)CC1	-2.44%
COC(=O)C1=C(C)NC(=O)CC1c1cccc(Cl)c1 (centres unmarked)	-1.36%
N#CCNC(=O)[C@H](Cc1c(F)cc(F)cc1F)NC(=O)OCc1ccccc1	-0.207%
N#Cc1ccc(/C=c2\sc3nc4ccccc4n3c2=O)cc1	2.26%
O=C(CSc1nnnn1-c1ccc(O)cc1)NCc1cccc(C(=O)O)c1	-3.96%
O=C(CCn1c(=O)[nH]c2ccsc2c1=O)N1CCC(Cc2ccccc2)CC1	7.93%
Cc1cccc(/N=C2\C(=O)N(C)c3cccc4c(O)c5ccccc5c2c34)c1	-2.46%
CCC(=O)Nc1ncc2c(n1)CC(c1ccc(Cl)cc1)CC2=O (centres unmarked)	-2.14%
O=C(Cc1ccccc1)C1CCOC1=O (centres unmarked)	6.24%
CN1CCN(c2ccc(NC(=O)c3ccco3)cc2)CC1	2.55%
O=C(O)C1CC=CCC1C(=O)NCc1ccncc1 (centres unmarked)	2.32%
CCc1ccc(OCC(O)CN2CCN(Cc3ccccc3)CC2)cc1 (centres unmarked)	-2.37%
